Results from PMC4336329 (PLoS ONE, 2015).
Hit rate of the full screen: of about 310,000 compounds, about 14,000 (4.5%) showed an effect of 50% or more. The effect is printed as a negative number. The list shows a part of the results.

molecular target: human ether-à-go-go-related gene (hERG) potassium channel (human, UniProt Q12809); experiment: primary screen, population patch clamp on CHO cells stably expressing hERG
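Note: peak tail current of the secondary pulse compared with the same well before compound.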

Chain of human ether-à-go-go-related gene (hERG) potassium channel (Q12809 whole entry, looked up): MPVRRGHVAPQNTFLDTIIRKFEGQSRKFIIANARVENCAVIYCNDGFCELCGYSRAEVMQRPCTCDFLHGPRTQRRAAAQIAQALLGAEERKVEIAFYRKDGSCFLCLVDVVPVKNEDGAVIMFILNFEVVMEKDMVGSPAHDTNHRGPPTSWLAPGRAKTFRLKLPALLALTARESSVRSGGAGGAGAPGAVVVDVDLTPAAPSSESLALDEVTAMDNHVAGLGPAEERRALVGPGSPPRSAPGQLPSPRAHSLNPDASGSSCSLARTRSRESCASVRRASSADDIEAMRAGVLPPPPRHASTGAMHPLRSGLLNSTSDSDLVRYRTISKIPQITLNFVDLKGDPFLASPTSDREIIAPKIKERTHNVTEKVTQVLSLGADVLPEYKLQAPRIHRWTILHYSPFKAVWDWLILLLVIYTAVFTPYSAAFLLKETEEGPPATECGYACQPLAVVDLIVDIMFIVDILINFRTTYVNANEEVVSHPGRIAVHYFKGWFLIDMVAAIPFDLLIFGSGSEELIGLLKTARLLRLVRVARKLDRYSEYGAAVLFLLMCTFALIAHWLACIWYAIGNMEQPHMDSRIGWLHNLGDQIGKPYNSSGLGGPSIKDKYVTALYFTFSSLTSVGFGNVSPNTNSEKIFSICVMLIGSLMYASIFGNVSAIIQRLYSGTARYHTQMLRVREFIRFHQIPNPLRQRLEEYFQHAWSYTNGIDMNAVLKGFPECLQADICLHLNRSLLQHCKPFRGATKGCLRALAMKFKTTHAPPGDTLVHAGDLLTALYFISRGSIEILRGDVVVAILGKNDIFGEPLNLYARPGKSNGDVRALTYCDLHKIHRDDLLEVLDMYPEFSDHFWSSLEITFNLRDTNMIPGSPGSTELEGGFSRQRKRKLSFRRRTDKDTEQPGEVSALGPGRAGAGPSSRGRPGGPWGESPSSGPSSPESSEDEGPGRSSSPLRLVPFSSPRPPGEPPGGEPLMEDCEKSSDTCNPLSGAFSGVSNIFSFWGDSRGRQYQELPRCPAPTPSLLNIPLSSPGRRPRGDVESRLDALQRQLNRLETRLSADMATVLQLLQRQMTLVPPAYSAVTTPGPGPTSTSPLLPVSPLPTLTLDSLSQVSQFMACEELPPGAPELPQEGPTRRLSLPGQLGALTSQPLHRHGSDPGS

Compared with `CCN(C(=O)COC(=O)c1c(C)noc1C)C1CCS(=O)(=O)C1` (stereo not drawn), `COc1ccc(CN(C)C(=O)COC(=O)c2c(-c3ccccc3Cl)noc2C)cc1` is lower in “hERG current change (%, negative = inhibition) at 10uM” value: 25.6% for the first, -15.1% for the second.

Going from `CN1C(=O)c2ccccc2C(C(=O)NCCCN2CCCC2=O)C1c1c[nH]c2ccccc12` (stereo not drawn) to `CC(C)CCNC(=O)c1nn(Cc2ccccc2)c(=O)c2ccccc12`, the “hERG current change (%, negative = inhibition) at 10uM” value falls from 12.4% to 5.59%.

Going from `COc1ccc(NC(=S)N=Nc2c(O)[nH]c3ccccc23)cc1` to `COc1ccc(C(=O)OCC(=O)NC(C)CCc2ccccc2)cc1` (stereo not drawn), the “hERG current change (%, negative = inhibition) at 10uM” value falls from 2.26% to 2.23%.

Going from `CCOc1ccccc1OC(=O)c1ccco1` to `O=C(Nc1nc2ccccc2n1Cc1ccc(Cl)cc1)c1ccco1`, the “hERG current change (%, negative = inhibition) at 10uM” value rises from -2.36% to 5.47%.

First: Cc1c(C)c2c(c(C)c1O)CC[C@@](C)(CCC[C@H](C)CCC[C@H](C)CCCC(C)C)O2
Second: Cc1ccc(Cl)cc1N1CCN(C(CC(C)C)c2nnnn2CC2CCCO2)CC1 (stereo not drawn)
The “hERG current change (%, negative = inhibition) at 10uM” value of the first is higher: 9.88% for the first, 1.21% for the second.

Going from `Cl.Nc1ccc(O)c2ccccc12` to `CCN(CC)CC(O)Cn1c2ccccc2c2ccccc21` (stereo not drawn), the “hERG current change (%, negative = inhibition) at 10uM” value falls from 11.6% to -16%.

Going from `CS(=O)(=O)N(CC(=O)NCc1ccco1)c1cccc([N+](=O)[O-])c1` to `O=C(CSCc1c(F)cccc1Cl)NCCSCc1ccco1`, the “hERG current change (%, negative = inhibition) at 10uM” value rises from -7.78% to 0.51%.

Going from `COc1ccc(S(=O)(=O)N2CCCC(C(=O)NCCC3=CCCCC3)C2)cc1` (stereo not drawn) to `O=C(NCC1COc2ccccc2O1)C1CCCN(S(=O)(=O)c2cnc[nH]2)C1` (stereo not drawn), the “hERG current change (%, negative = inhibition) at 10uM” value falls from 12.1% to 7.84%.

First: COc1ccc(N2CCN(C(c3cccc(OC)c3OC)c3nnnn3C3CCCC3)CC2)cc1.Cl (stereo not drawn)
Second: Cc1ccc(-n2c(SCC(=O)N3CCOCC3)nnc2-c2cccnc2)cc1C
The “hERG current change (%, negative = inhibition) at 10uM” value of the first is higher: 7.82% for the first, -16.9% for the second.

Compared with `Cc1nc2ccccn2c1C(=O)NCc1cccnc1`, `CCCC(=O)Nc1nc(-c2ccccc2)ns1` is lower in “hERG current change (%, negative = inhibition) at 10uM” value: -3.36% for the first, -9.53% for the second.

Compared with `CCC(C)(C)NC(=O)C(c1ccccn1)N(C(=O)c1csnn1)c1ccc(C)cc1` (stereo not drawn), `O=C(CCCC(=O)N(c1ccc(F)cc1)C(C(=O)NC1CCCC1)c1ccc(O)cc1)Nc1ccccn1` (stereo not drawn) is higher in “hERG current change (%, negative = inhibition) at 10uM” value: -10.2% for the first, -5.27% for the second.

First: O=C(CSc1nnc(NC2CC2)s1)NN1C(=O)NC2(CCCCC2)C1=O
Second: CC1CCCCN1CCn1c(=S)[nH]c2ncccc2c1=O (stereo not drawn)
The “hERG current change (%, negative = inhibition) at 10uM” value of the first is higher: -1.61% for the first, -5.69% for the second.

Compared with `CCc1nc2ccccc2nc1N1CCN(S(=O)(=O)c2ccccc2)CC1`, `CCn1c(Cc2ccccc2)nnc1SCc1cccc(C(=O)O)c1` is lower in “hERG current change (%, negative = inhibition) at 10uM” value: 7.4% for the first, -2.1% for the second.

Going from `CC1(OC(=O)CCc2ccccc2)C(=O)C=C2C=C(c3ccc(C#N)cc3)N(Cc3ccco3)C=C2C1=O` (stereo not drawn) to `Cc1ccc(-n2nnnc2-c2cnc3ccc(Cl)cc3c2-c2ccccc2)cc1`, the “hERG current change (%, negative = inhibition) at 10uM” value rises from -38.9% to -16.7%.

First: COc1cc(/C=C(\C#N)C(=O)NC2CCCCC2)ccc1OCc1ccc(C(=O)O)cc1
Second: COc1ccc(NCC(=O)Nc2ccccc2C#N)cc1Cl
The “hERG current change (%, negative = inhibition) at 10uM” value of the first is higher: 26.3% for the first, -3.28% for the second.

Going from `O=[N+]([O-])c1ccc(-c2ccc(/C=N/Nc3nc(NCc4ccccc4)nc(N4CCOCC4)n3)o2)cc1` to `NC(=O)CC(NC(=O)Cc1ccc(Cl)cc1)c1ccc(N2CCC(Cc3ccccc3)CC2)c([N+](=O)[O-])c1` (stereo not drawn), the “hERG current change (%, negative = inhibition) at 10uM” value rises from 2.75% to 17.7%.

First: CC(=O)N1CCn2c3ccc(C)cc3c3cccc1c32
Second: COc1c(C)cccc1C(=O)Nc1cc(-c2nn3c(C)nnc3s2)ccc1C
The “hERG current change (%, negative = inhibition) at 10uM” value of the first is lower: -0.647% for the first, 3.05% for the second.

Going from `Cc1ccc(S(=O)(=O)N(C)Cc2ccc(C(=O)NN=C3C4CC5CC(C4)CC3C5)cc2)cc1` to `O=C(c1ccc2c3c(cccc13)CC2)C1CCCN(C(=O)c2cc[n+]([O-])cc2)C1` (stereo not drawn), the “hERG current change (%, negative = inhibition) at 10uM” value rises from 0.806% to 7.06%.

`O=C1CCN(C(=O)Nc2ccccc2)N1` and `CC(=O)NC(Cc1ccccc1)C(=O)O` (stereo not drawn) are the same in “hERG current change (%, negative = inhibition) at 10uM” value: 19.7% for the first, 19.7% for the second.

Going from `COc1ccc2c(C)cc(SCC(=O)NCC3CCCO3)nc2c1` (stereo not drawn) to `CCOC(=O)c1sc(NC(=O)CSc2ncn(-c3ccccc3)n2)nc1C`, the “hERG current change (%, negative = inhibition) at 10uM” value rises from -17.9% to 7.23%.

First: CCOc1[nH]n(-c2ccc(Cl)cc2)c(=O)c1C=NCc1cccnc1
Second: O=C(N/N=C/c1cccnc1)c1cc(O)c(O)c(O)c1
The “hERG current change (%, negative = inhibition) at 10uM” value of the first is lower: -42.1% for the first, 26.3% for the second.

First: COC(=O)c1c(C)nc2nonc2c1N
Second: COC(=O)c1c(C)cc(O)cc1O
The “hERG current change (%, negative = inhibition) at 10uM” value of the first is lower: 16.8% for the first, 19.3% for the second.

First: CC(=O)NCC(=O)OCC(=O)Nc1ccc(C(C)=O)cc1
Second: O=C(COC(=O)c1cccnc1Cl)c1ccc(OC(F)F)cc1
The “hERG current change (%, negative = inhibition) at 10uM” value of the first is higher: 4.36% for the first, -23.4% for the second.

Compared with `O=C(NCCO)/C(=C\c1cccs1)NC(=O)c1cccs1`, `COc1cc(NC(=O)CN2C(=O)c3ccccc3C2=O)c(C(=O)O)cc1OC` is lower in “hERG current change (%, negative = inhibition) at 10uM” value: 18.7% for the first, 13.8% for the second.

Compared with `COc1cccc(/C=N/NC(=O)c2nnn(-c3nonc3N)c2C(C)C)c1OCc1ccc(F)cc1`, `COc1ccc(S(=O)(=O)Nc2cccc(SC)c2)cc1OC` is lower in “hERG current change (%, negative = inhibition) at 10uM” value: 1.64% for the first, -0.907% for the second.

First: S=C(NCc1ccco1)NC1CCCc2ccccc21 (stereo not drawn)
Second: OCC[N+]12CCC(CC1)C(C(O)(c1ccccc1)c1ccccc1)C2 (stereo not drawn)
The “hERG current change (%, negative = inhibition) at 10uM” value of the first is lower: -4.65% for the first, 15.7% for the second.

Going from `O=C(NC(=S)N1CCCCC1c1cccnc1)c1ccc(Br)cc1` (stereo not drawn) to `Br.CC1(C)OC(c2ccccc2)=C/C(=C/C=Nc2ccccc2)O1`, the “hERG current change (%, negative = inhibition) at 10uM” value rises from -45.6% to -12.9%.

Compared with `Cc1noc(NS(=O)(=O)c2ccc(N)cc2)c1C`, `Cc1nnc(SCc2nc(N)nc(Nc3ccccc3)n2)s1` is lower in “hERG current change (%, negative = inhibition) at 10uM” value: 13.4% for the first, -12.3% for the second.

For `CCC(=O)Nc1nc(C)nc(C)c1C(C)=O`, the “hERG current change (%, negative = inhibition) at 10uM” value was 13.3%.
